# Laboratory results from PubChem BioAssay AID1963576 (National Center for Advancing Translational Sciences (NCATS), 2024).
# Screen size: about 46,000 compounds; about 60 (0.1%) were called active. Not shown: some 3% with an inconclusive outcome. The call rests on the fitted dose curve; in most records, active means well fitted inhibition curve with a large enough effect; inconclusive means small, poorly fitted or top-dose-only effect; inactive means no such curve, though single readings can be large or run the other way. This is one part of the list.
# Assay: Primary qHTS assay for Inhibitors of ovarian cancer metastasis using an organotypic tumor microenvironment (TME) model. Further: nearly all actives have a fitted effect of over 65% in size.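 On activity change, negative = inhibition: plate controls were DMSO wells for no effect and tomatine positive control wells for full effect.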
# Conditions: SKOV3ip1-GFP adhesion/invasion on 3D omental model, fluorescence; series mostly up to 45.8 µM; activity change, negative = inhibition: at the top concentration
# Method in brief: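 qHTS, 4-pt dose (0.36-46 umol/L); SKOV3ip1-GFP, 1,200 cells/well, no FBS; primary omental fibroblast/mesothelial co-culture 48 h pre-grown; 2 h RT + 16 h 37 C; PBS wash, 4% PFA; GFP count 488/509 nm.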
SMILES,outcome,"activity change, negative = inhibition"
COc1ccc(C2=NC(c3ccncc3)=Nc3ccc(Br)cc3N2)cc1,inactive,
COc1ccc(CC(=O)NCc2ccc3c(c2)CCN3C(=O)c2ccccc2)cc1OC,,inactive: -2.64%
CN(C)c1ccc(-n2c(CCC(=O)O)ccc2-c2ccccc2)cc1,,inactive: -9.49%
COc1ccccc1N1CCN(C(CNC(=O)C(=O)NCc2ccc(C)cc2)c2cccnc2)CC1 (configuration not stated),,inactive: 4.49%
CC(C)(C)c1ccc(OCCn2cc(C(=O)c3ccco3)c3ccccc32)cc1,,inactive: 1.38%
CCc1cccc(NC(=O)C2CCCN(S(=O)(=O)c3cccs3)C2)c1 (configuration not stated),,inactive: -1.54%
CCn1cc(C(=O)N2CCN(c3ccc(F)cc3)CC2)c(=O)c2cc(S(=O)(=O)N(C)C3CCCCC3)ccc21,inactive,
CCOC(=O)C1=C(CN2CCCCC2)NC(=O)NC1c1cc(C)ccc1C (configuration not stated),,inactive: -1.51%
COc1ccc(-c2nc3cc(C)ccn3c2NC(=O)c2ccc(C)c(C)c2)cc1,,inactive: 0.923%
CC(C)CCn1c(=O)c2sccc2n2c(CCCC(=O)NC(C)C)nnc12,,inactive: -15.7%
CCNC(=O)c1cnc2c(-c3ccccc3)c(C)nn2c1C,,inactive: -0.725%
CC(C)CC1N=C2c3ccccc3N=C(SCC(=O)NCCc3ccc(Cl)cc3)N2C1=O (configuration not stated),,inactive: 5.76%
CNC(=O)CN1C(=O)c2cccnc2Sc2ccccc21,,inactive: 7.94%
Cc1ccc(NS(=O)(=O)c2ccc3c(c2)CC(C)N3C(=O)C2CCC2)cc1Cl (configuration not stated),,inactive: 3.29%
CCOc1ccccc1NC(=O)c1c(NC(=O)C(C)Oc2ccc(Cl)cc2)sc2c1CCCCC2 (configuration not stated),,inactive: 1.85%
Cc1cccc(-c2nc3c(c(SCc4ccccc4Cl)n2)Cc2c(CO)cnc(C)c2O3)c1,,inactive: 6.65%
COc1cc(Cl)c(C)cc1NC(=O)c1cc2c(Cl)nc3ccc(C)cc3c2s1,,inactive: -17.5%
COc1cccc(CNC(=O)CN(C)S(=O)(=O)c2ccc3[nH]c4c(c3c2)CCCC4)c1,,inactive: -8.55%
Cc1cccc(OCC(=O)Nc2ccccc2OCc2cc(=O)n3ccccc3n2)c1,,inactive: -3.85%
COc1ccc(-n2c(=O)c3c4c(sc3n(Cc3ccccc3Cl)c2=O)CCC4)c(OC)c1,,inactive: -4.95%
O=C(NCc1ccccc1Cl)C1CCCN(C(=O)c2cnn(-c3ccccc3)c2-n2cccc2)C1 (configuration not stated),inactive,
COc1ccc(-c2cc(=O)c3c(O)cc(O)cc3o2)cc1O,,inactive: 2.89%
Cc1ccc(CN2CCc3nc(N4CCN(c5ccccc5F)CC4)ncc3C2)cc1C,,inactive: 5.6%
COc1cccc(-c2cc(C(F)(F)F)nc(NCCc3ccccc3)n2)c1,,inactive: -0.615%

SMILES,outcome,"activity change, negative = inhibition"
Cc1cccc(C)c1-n1ncc(C(=O)Nc2ccc3c(c2)OCO3)c1C1CCN(C(=O)OC(C)(C)C)CC1,,inactive: -2.9%
CCOc1ccccc1CNC(=O)C1CCCN(c2ncnc3onc(-c4ccc(F)cc4)c23)C1 (configuration not stated),,inactive: -0.845%
Cc1nc2c(C(=O)NCCc3ccc(Cl)cc3)c[nH]n2c(=O)c1Cc1ccc(Cl)cc1,inactive,
COc1ccccc1C(=O)Nc1c(C(=O)N(C)Cc2ccccc2)sc2nc(C)c(Cl)c(C)c12,inactive,
O=C(CSc1nnc(-c2ccc(O)cc2)o1)c1ccc(Br)cc1,,inactive: 1.03%
Cc1ccc2c(c1)-c1nc(-c3ccc4c(c3)NC(=O)CO4)cc(-c3ccc(F)cc3)c1CO2,inactive,
COCCCNC(=O)C(=O)Nc1c2c(nn1-c1cccc(Cl)c1)CSC2,,inactive: 2.69%
CCOC(=O)c1ccc(NC(=O)N2CCOc3ccccc32)cc1,,inactive: 5.34%
Cc1ccccc1-c1nnc(CN2CCN(c3ccccn3)CC2)o1,,inactive: -0.722%
Cc1cc(Br)ccc1NC(=O)C1CCN(S(=O)(=O)c2cccc3nsnc23)CC1,,inactive: 27.8%
CCOc1ccccc1NC(=O)N1CCc2cc(S(=O)(=O)N3CCC(C)CC3)ccc21,inactive,
CCCCCSc1nc2sc3c(c2c(=O)n1-c1ccccc1)CCN(C(C)=O)C3,,inactive: -18.7%
Cc1nn(C(=O)c2ccccc2F)c(C)c1S(=O)(=O)N1CCCCCC1,inactive,
COc1ccc(-c2oc3ncn4nc(COc5c(C)cccc5C)nc4c3c2-c2ccc(OC)cc2)cc1,,inactive: 6.59%
CCOc1ccc(CCNC(=O)c2cnc3sc(N4CCC(C)CC4)nn3c2=O)cc1,,inactive: 2.14%
COC(=O)c1c(-c2cccs2)csc1NC(=O)COc1c(C)ccc(C)c1C,,inactive: -4.25%
CNC(=O)Cn1cc(S(=O)(=O)Cc2ccccc2F)c2ccccc21,inactive,
Cc1cccc(NC(=O)c2sc(-n3nc(C)c(Cc4ccc5c(c4)OCO5)c3C)nc2C)c1C,,inactive: -3.73%
Cc1ccc(Cn2c(SCc3ccc(C(=O)N4CCCCCC4)cc3)nc3ccncc32)cc1,,inactive: -3.79%
Cc1ccc(NC(=O)CSc2ncc3c(n2)-c2ccc(Cl)cc2N(C)S3(=O)=O)cc1F,,inactive: 5.92%
COc1ccccc1NC(=O)c1sc2nc(N3CCOCC3)c3c(c2c1N)CC(C)(C)OC3,,inactive: -11.6%
COc1ccc(-c2noc(CSc3nnc(C)n3-c3ccc(OC)cc3)n2)cc1,,inactive: 15.6%
Cn1nnnc1SCCCNCc1ccccc1OCc1ccccc1Cl,,inactive: -36.4%
